Assay results reported in PubChem BioAssay AID1477 (National Center for Advancing Translational Sciences (NCATS), 2009).
The campaign covered roughly 230,000 compounds. Fewer than 10 were called active. The shares of active, inactive and inconclusive entries below differ from those in the screen. Calls come from the whole dose curve; as a rule, active = well fitted curve in the direction sought with a large enough effect; inconclusive = small, poorly fitted or top-dose-only effect, or effect the other way, or another doubt; inactive = no such curve, though single readings can be large or run the other way. Potencies of inconclusive entries are left out as doubtful fits.

biological target: Runt-related transcription factor 1 (Homo sapiens) + Core-binding factor subunit beta (Homo sapiens) (UniProt Q01196+Q13951); assay: qHTS Assay for Compounds Blocking the Interaction Between CBF-beta and RUNX1 for the Treatment of Acute Myeloid Leukemia; settings: AlphaScreen CBFb-His/RUNX1-biotin binding, biochemical; activity, negative = inhibition: at 59.8 µM (top of the series) unless noted; for activity, negative = inhibition: % of control where 0% means no effect
UniProt Q01196, sequence (Q01196 whole entry, looked up): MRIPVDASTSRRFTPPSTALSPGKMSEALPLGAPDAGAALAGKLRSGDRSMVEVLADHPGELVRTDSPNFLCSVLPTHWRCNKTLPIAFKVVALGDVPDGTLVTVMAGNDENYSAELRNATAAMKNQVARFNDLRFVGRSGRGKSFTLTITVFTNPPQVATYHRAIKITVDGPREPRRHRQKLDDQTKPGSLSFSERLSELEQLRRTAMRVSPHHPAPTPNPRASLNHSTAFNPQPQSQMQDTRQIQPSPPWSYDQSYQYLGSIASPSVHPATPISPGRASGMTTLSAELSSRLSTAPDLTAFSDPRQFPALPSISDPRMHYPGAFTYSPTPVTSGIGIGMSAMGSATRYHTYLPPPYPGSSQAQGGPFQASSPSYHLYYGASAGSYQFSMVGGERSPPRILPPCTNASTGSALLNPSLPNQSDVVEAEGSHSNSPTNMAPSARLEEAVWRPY
UniProt Q01196, sequence (Q13951 whole entry, looked up): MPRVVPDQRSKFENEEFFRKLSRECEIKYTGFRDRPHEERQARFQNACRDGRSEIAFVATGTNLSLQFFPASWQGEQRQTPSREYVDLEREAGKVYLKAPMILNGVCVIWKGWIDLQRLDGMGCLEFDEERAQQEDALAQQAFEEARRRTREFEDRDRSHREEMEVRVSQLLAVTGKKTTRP
Method in brief: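 Read-out: AlphaScreen. Format: His-CBF-beta with biotinylated RUNX1 (30 nM each) preincubated 20 min, compound 15 min, Ni-chelate plus streptavidin beads 90 min; room temperature throughout.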

Row | Compound | activity, negative = inhibition | Potency
1 | Cc1cc(C)c(NS(=O)(=O)c2ccc(NC(=O)c3cccs3)cc2)c(C)c1 | inactive: -13.9% | 
2 | COc1ccc(-c2cnc(SCC(=O)Nc3ccc4c(c3)OCO4)n2Cc2ccco2)cc1 |  | inconclusive [inhibitor, partial curve]
3 | Cc1ccc(COc2ccccc2C(=S)N2CCCC2)cc1 | inactive: 9.58% | 
4 | COCCOC(=O)c1c(NC(=O)CN2CCc3ccccc32)sc(C(N)=O)c1C | inactive: -9.87% | 
5 | Cc1cccc(C)c1-n1c(C)cc(/C=N/NC(N)=S)c1C |  | inconclusive [inhibitor, single point]
6 | Cn1c(CNc2ccccc2O)nc2ccccc21 |  | inconclusive [inhibitor, partial curve]
7 | NC(=O)c1cnn(Cc2ccc(Cl)cc2)c1N | inactive: 4.43% | 
8 | COC(=O)CN(c1cc(Cl)ccc1OC)S(=O)(=O)c1ccc(C)cc1 | inactive: 19.5% | 
9 | Cc1cc(C(=O)Cn2nc(C(=O)O)c3ccccc3c2=O)c(C)n1CCc1ccc(Cl)cc1 |  | inconclusive [inhibitor, single point]
10 | NS(=O)(=O)c1cccc(NC(=O)CN2CCN(Cc3ccc4c(c3)OCO4)CC2)c1 |  | inconclusive [activator, single point]
11 | O=C(CSc1cc(Cl)ccc1Cl)NCC1CCCO1 (stereo not given) | inactive: 5.98% | 
12 | COc1ccccc1/C=C\C=N\n1c(-c2ccc(Cl)cc2Cl)n[nH]c1=S |  | inconclusive [inhibitor, single point]
13 | COc1ccccc1OC(=O)CCN1c2ccccc2Sc2ccccc21 |  | inconclusive [activator, single point]
14 | CC(=O)OCCN1C(=O)c2cccnc2C1=O |  | inconclusive [inhibitor, single point]
15 | Clc1ccc(N/N=C/c2cccs2)nn1 |  | inconclusive [inhibitor, single point]
16 | O=C(NCc1cccs1)c1ccc(Cl)c(S(=O)(=O)N2CCCC2)c1 | inactive: 4.41% | 
17 | CCNC(=O)CN1C(=O)NC(Cc2ccccc2)(Cc2ccccc2)C1=O |  | inconclusive [inhibitor, single point]
18 | CCCCC(=O)N/N=C/c1c(O)n(-c2cccc3ccccc23)c(=O)[nH]c1=O |  | inconclusive [inhibitor, single point]
19 | O=C(CSc1nnc(NC2CCCCC2)s1)Nc1ccc2c(c1)C(=O)c1ccccc1C2=O | inactive: -16.2% | 
20 | CC(C)CCC[C@@H](C)[C@@H]1CC[C@H]2C3=CC=C4CC(O)CC[C@]4(C)[C@H]3CC[C@@]21C (stereo not given in full) |  | inconclusive [inhibitor, single point]
21 | O=C(O)CCCn1cc(NC(=O)c2cc(F)c(F)cc2Cl)cn1 |  | inconclusive [activator, full curve]
22 | OC(CSc1c(Cl)cccc1Cl)CN1CCN(c2ccccc2F)CC1 (stereo not given) | inactive: 9.89% | 
23 | O=C(CCCn1c(=S)[nH]c2ccccc2c1=O)NCCSCc1ccccc1 | inactive: 1.61% | 

Row | Compound | activity, negative = inhibition | Potency
24 | Clc1ccc(NNc2ccnc3cc(Cl)ccc23)cc1 |  | inconclusive [inhibitor, single point]
25 | c1ccc(-n2c3ccccc3c3ccccc32)cc1 |  | inconclusive [activator, single point]
26 | O=C(NCc1cccnc1)c1ccc(-c2cc3ccccc3oc2=O)cc1 |  | inconclusive [activator, single point]
27 | O=C(NN=C1CCN(Cc2ccccc2)CC1)c1cc2ccccc2cc1O |  | inconclusive [inhibitor, single point]
28 | c1ccc(-c2ccc(C(c3ccccc3)n3ccnc3)cc2)cc1 (stereo not given) |  | inconclusive [inhibitor, single point]
29 | Oc1c(Cl)cc(Cl)c2cccnc12 |  | inconclusive [inhibitor, single point]
30 | Cc1nnc(N/N=C/c2ccccn2)[nH]c1=O |  | inconclusive [inhibitor, single point]
31 | Cn1cnnc1Sc1ccc(C(=O)NCCC(c2ccccc2)c2ccccc2)cc1[N+](=O)[O-] |  | inconclusive [inhibitor, single point]
32 | Cc1cccc(/C=C/C(=O)c2cc(Br)ccc(=O)c2O)c1 |  | inconclusive [inhibitor, single point]
33 | O=[N+]([O-])c1ccc(S(=O)(=O)Nc2ccc(-c3csc(-c4ccccc4)n3)cc2)cc1 |  | inconclusive [inhibitor, single point]
34 | CCOc1cc(/C=N\NC(=O)OC(C)(C)C)ccc1OC(=O)c1ccco1 | inactive: 6.85% | 
35 | CC(C)Cc1cc(CN2CCC(CO)(Cc3cccc(C(F)(F)F)c3)CC2)[nH]n1 | inactive: 3.7% | 
36 | COc1ccccc1C(C)NCC(=O)Nc1ccccc1C(F)(F)F (stereo not given) | inactive: -2.4% | 
37 | CC(=O)OCC1=C(C(=O)O)N2C(=O)[C@@H](NC(=O)Cc3cccs3)[C@@H]2SC1 |  | inconclusive [inhibitor, single point]
38 | COc1ccc(OC)c(NC(=O)CSc2nnc(Cc3cccn3C)n2CCc2ccccc2)c1 |  | inconclusive [inhibitor, single point]
39 | Cc1cc(C)cc(NC(=S)NCc2ccc3[nH]c4c(c3c2)CCCC4)c1 |  | inconclusive [inhibitor, single point]
40 | COc1ccc(NC(=O)CCCN2C(=O)/C(=C\c3ccco3)SC2=S)cc1 |  | inconclusive [inhibitor, partial curve]
41 | COc1ccc(C(=O)c2c(C(F)(F)F)oc3c2C(=O)c2ccccc2C3=O)cc1 | inactive: -14.3% | 
42 | O=C(Cn1cnc2scc(-c3cccc([N+](=O)[O-])c3)c2c1=O)NCc1ccco1 |  | inconclusive [inhibitor, single point]
43 | CCCCC(C)/C=C(C)/C=C(\C)C(=O)NC1=CC(O)(/C=C/C=C/C=C/C(=O)NC2=C(O)CCC2=O)C2OC2C1=O (stereo not given) |  | inconclusive [inhibitor, single point]
44 | Cc1[nH]c(-c2ccccn2)nc(=S)c1Cl |  | inconclusive [inhibitor, single point]
45 | Cn1c(O)c(C(c2ccccn2)c2c(O)n(C)c(=S)n(C)c2=O)c(=O)n(C)c1=S |  | inconclusive [inhibitor, partial curve]
